Source: PubChem BioAssay AID1030 (National Center for Advancing Translational Sciences (NCATS), 2008)
Among all 220,000 compounds or so, about 16,000 (7.3%) were called active. The shares of active, inactive and inconclusive entries below differ from those in the screen. The call rests on the fitted dose curve; in most records, active means well fitted inhibition curve with a large enough effect (not every such curve was filed as active); inconclusive means small, poorly fitted or top-dose-only effect, or another doubt; inactive means no such curve, though single readings can be large or run the other way. Potencies of inconclusive entries are left out as doubtful fits.

biological target: Aldehyde dehydrogenase 1A1 (Homo sapiens) (UniProt P00352); assay: qHTS Assay for Inhibitors of Aldehyde Dehydrogenase 1 (ALDH1A1); conditions: Purified ALDH1A1, NADH fluorescence, propionaldehyde substrate; series mostly up to 75.3 µM
Sequence of UniProt P00352 (P00352 whole entry, looked up): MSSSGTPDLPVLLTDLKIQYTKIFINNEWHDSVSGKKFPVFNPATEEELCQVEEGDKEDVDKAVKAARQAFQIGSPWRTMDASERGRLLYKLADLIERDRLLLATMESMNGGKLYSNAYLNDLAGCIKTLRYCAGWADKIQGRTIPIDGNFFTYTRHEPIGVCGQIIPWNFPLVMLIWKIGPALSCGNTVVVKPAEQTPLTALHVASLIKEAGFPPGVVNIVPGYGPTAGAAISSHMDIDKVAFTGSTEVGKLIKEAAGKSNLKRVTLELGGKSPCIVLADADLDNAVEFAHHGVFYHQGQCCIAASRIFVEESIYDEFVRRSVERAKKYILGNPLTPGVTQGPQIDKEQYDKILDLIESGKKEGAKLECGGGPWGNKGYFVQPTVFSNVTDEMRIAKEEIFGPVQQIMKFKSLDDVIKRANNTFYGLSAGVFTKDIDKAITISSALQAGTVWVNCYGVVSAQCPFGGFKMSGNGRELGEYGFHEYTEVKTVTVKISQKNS
Potency means the concentration at half of the fitted maximal effect; tags describe the fitted curve by direction and shape.

Row | Structure (SMILES) | Potency
1 | CC(=O)Nc1ccc(S(=O)(=O)NCCSc2ccccn2)cc1 | inconclusive [inhibitor, partial curve]
2 | Cc1cc(S(=O)(=O)NCc2ccccc2)ccc1OCC(=O)Nc1cccc([N+](=O)[O-])c1 | inconclusive [inhibitor, single point]
3 | COc1ccc(Nc2ncnc3ccc([N+](=O)[O-])cc23)c(OC)c1 | inconclusive [inhibitor, single point]
4 | CCn1cc(C(=O)O)c(=O)c2cc(F)c(N3CCN(S(=O)(=O)c4ccc(NC(=O)OC)cc4)CC3)cc21 | inconclusive [inhibitor, partial curve]
5 | O=C(NCCN1C(=O)CSC1=O)C1CC(=O)N(c2ccccc2)C1 (stereo not drawn) | inactive
6 | CCC(C)NC(=S)N(CCc1ccccc1)Cc1cc2cc(OC)c(OC)cc2[nH]c1=O (stereo not drawn) | inconclusive [inhibitor, single point]
7 | Cc1cccc(Oc2ccccc2NC(=O)c2cnccn2)c1 | active: 11.2 µM
8 | CNc1oc(Cc2cccc3ccccc23)nc1C#N | inconclusive [inhibitor, single point]
9 | CN(C)c1ccc(C=C(c2nnnn2-c2ccccc2)c2nnnn2-c2ccccc2)cc1 | inconclusive [inhibitor, partial curve]
10 | CCOc1ccc(Nc2nc(Nc3ccc(O)cc3)nc(C)c2[N+](=O)[O-])cc1 | inactive
11 | Cc1cccc2cc(CN(CCN3CCOCC3)C(=O)Nc3ccccc3F)c(=O)[nH]c12 | inconclusive [inhibitor, single point]
12 | COc1cccc(-n2nnc3c(=O)n(CC(=O)NCC4CCCO4)cnc32)c1 (stereo not drawn) | inactive
13 | O=C(/C=C/c1ccccc1)NC(=S)Nc1cccnc1 | inactive
14 | Cc1cc(N2CCN(c3ccccc3)CC2)nc(-c2ccccc2)n1 | inactive
15 | O=C(NCCCO)/C(=C/c1ccco1)NC(=O)c1ccc(Br)o1 | inconclusive [inhibitor, single point]
16 | CCc1cc(-c2n[nH]c(=S)n2CC(C)C)cs1 | inconclusive [inhibitor, full curve]
17 | CCOC(=O)c1c(C)[nH]c(C(=O)C(C)Cl)c1C (stereo not drawn) | active: 22.4 µM
18 | CCCOC(=O)Cn1c(=O)c2cc3c(=O)n(CC(=O)OCCC)c(=O)c3cc2c1=O | inconclusive [inhibitor, single point]
19 | Cc1ccc(S(=O)(=O)CCc2nc3ccccc3n2CCC#N)cc1 | inconclusive [inhibitor, single point]
20 | O=C(Nc1cccc(S(=O)(=O)N2CCOCC2)c1)C(c1ccccc1)N1CCCCC1 (stereo not drawn) | active: 7.08 µM
21 | CNC(=O)c1cc2c(s1)CCCCCC2 | inconclusive [inhibitor, partial curve]
22 | CCOC(=O)c1sc(=S)n(-c2cc(OC)ccc2OC)c1N | active: 3.16 µM
23 | CC(=O)/C(=C\Nc1ccc(OCc2ccccc2)cc1)c1ccccc1 | inconclusive [inhibitor, single point]
24 | CC/C(C)=N\N=C\c1c(O)n(CC)c2cc(C3=NNC(=O)CC3)ccc12 | inconclusive [inhibitor, partial curve]
25 | O=C(c1ccc(-n2c(SCc3cc(F)ccc3F)nc3ccccc3c2=O)cc1)N1CCOCC1 | active: 35.5 µM

Row | Structure (SMILES) | Potency
26 | CC1(C)CC(N2CCCC2)=CC(=[N+]2CCCC2)C1 | inactive
27 | COCCN(C(=O)CC(C)(C)C)c1nnc(-c2cccnc2)s1 | inactive
28 | O=C(NCCCN1CCN(Cc2ccccc2)CC1)C1CCN(S(=O)(=O)N2CCCC2)CC1 | inactive
29 | COCCNc1cc(C)c(C#N)c2nc3ccccc3n12 | inconclusive [inhibitor, partial curve]
30 | Cc1ccccc1C(=O)NC1CCN(C(=O)N(c2ccccc2)c2ccccc2)CC1 | inconclusive [inhibitor, single point]
31 | CCCCCCC(=O)N1CCC(c2nc3c(nnn3Cc3ccccc3Cl)c(=O)[nH]2)CC1 | inconclusive [inhibitor, single point]
32 | ONC(=Nc1ccccc1Cl)c1ccccc1Cl | inconclusive [inhibitor, single point]
33 | CCCCCCCCCC(=O)OCC(CO)OC(=O)CCCCCCCCC (stereo not drawn) | inactive
34 | CC(C)CC(NC(=O)C1CCC(C)CC1)C(=O)NCc1ccco1 (stereo not drawn) | inactive
35 | Oc1c(N=NC(=S)Nc2ccccc2F)c2ccccc2n1Cc1ccccc1Cl | inconclusive [inhibitor, single point]
36 | COc1cccc(C(=O)NNC(=O)Cc2cccs2)c1 | inconclusive [inhibitor, partial curve]
37 | Cc1ccc(-n2nnnc2-c2cnn(-c3cccc(F)c3)c2C(F)(F)F)cc1 | inconclusive [inhibitor, single point]
38 | Cc1ccc(S(=O)(=O)Nc2ccc(NC(=O)c3c(F)c(F)c(F)c(F)c3F)cc2)cc1 | inactive
39 | Cc1cc(Oc2cc(N)cc([N+](=O)[O-])c2)ccc1Cl | inactive
40 | Clc1ccc(-c2nnc3n2CCCCS3)cc1 | inconclusive [inhibitor, single point]
41 | COc1ccc(Nc2nc(NCc3ccco3)nc(N/N=C/c3ccccc3F)n2)cc1 | inconclusive [inhibitor, partial curve]
42 | Cc1ccc(CC(=S)N2CCOCC2)cc1 | active: 23.8 µM
43 | Cc1ccc2nc(-c3sc4nc(C)cc(C)c4c3N)[nH]c2c1 | inconclusive [inhibitor, single point]
44 | CCOc1ccc2[nH]c(=O)c(CN(Cc3cccs3)Cc3nnnn3C(C)(C)C)cc2c1 | inconclusive [inhibitor, partial curve]
45 | CCCCn1c(SCC(=O)c2ccccc2)nc2c1c(=O)[nH]c(=O)n2C | inconclusive [inhibitor, partial curve]
46 | Cc1c(Cl)cccc1NC(=O)CSCc1cc(=O)[nH][nH]1 | inconclusive [inhibitor, single point]
47 | c1ccc(-n2nnnc2-n2nnc3ccccc32)cc1 | inactive
48 | CC(C)CCOP(=O)(c1ccc(N(C)C)cc1)C(Nc1ccccc1)c1ccc(N(C)C)cc1 (stereo not drawn) | inconclusive [inhibitor, single point]
49 | Cc1ccc2c(c1)C(O)(CC(=O)c1cccc(-n3cccc3)c1)C(=O)N2 (stereo not drawn) | inactive
50 | c1cncc(-c2nnc(-c3cccnc3)nn2)c1 | active: 11.2 µM

Row | Structure (SMILES) | Potency
51 | CCO[C@@H]1OC(C(=O)N2CCCCCCC2)=C[C@H](c2ccc3c(c2)OCO3)[C@H]1CCCO | inactive
52 | COc1ccc(CN2CCNC(=O)C2CC(=O)NCc2ccc(C)s2)c(OC)c1 (stereo not drawn) | inconclusive [inhibitor, partial curve]
53 | COc1cc(N)c(Cl)cc1C(=O)CCC1CCN(CCNS(C)(=O)=O)CC1 | inconclusive [inhibitor, single point]
54 | COC(=O)c1cc(C)nc(N)c1C#N | inconclusive [inhibitor, partial curve]
55 | O=C(O)C1CSC(c2ccncc2)N1 (stereo not drawn) | inconclusive [inhibitor, partial curve]
56 | C=CCNc1oc(-c2cccs2)nc1C#N | inconclusive [inhibitor, partial curve]
57 | COCCN(C(=O)/C=C/c1ccccc1)c1nnc(-c2cccnc2)s1 | inconclusive [inhibitor, single point]
58 | Cn1nc(-c2ccc(N3CCN(CCO)CC3)c([N+](=O)[O-])c2)c2ccccc2c1=O | active: 4.47 µM
59 | COc1ccc(S(=O)(=O)n2nc(-c3cc(OC)c(OC)c(OC)c3)cc2N)cc1OC | inactive
60 | O=C(c1cnn2c(C(F)F)cc(-c3ccccc3)nc12)N1CCN2CCCC2C1 (stereo not drawn) | inconclusive [inhibitor, single point]
61 | COCCn1c(=NC(=O)c2cc(-c3cccs3)nc3ccccc23)sc2cc(S(N)(=O)=O)ccc21 | inconclusive [inhibitor, partial curve]
62 | CN(C)CCCN1C(=O)c2oc3ccccc3c(=O)c2C1c1cccs1 (stereo not drawn) | inconclusive [inhibitor, single point]
63 | CCOC(=O)C1=C(C)NC2=C(C(=O)c3ccccc32)C1c1ccc([N+](=O)[O-])o1 (stereo not drawn) | inconclusive [inhibitor, single point]
64 | O=C(NCCN1CCOCC1)c1cccc(Cl)c1 | inactive
65 | COC(=O)C1CCN(C(=O)/C=C/c2ccccc2)CC1 | inactive
66 | CC1=C(C(=O)Nc2ccc(C)cn2)C(c2cnn(C)c2)C2=C(CCCC2=O)N1 (stereo not drawn) | inconclusive [inhibitor, partial curve]
67 | Cc1c(C(=O)N2CCN(c3ccc(F)cc3)CC2)sc2nc(-c3ccccc3)cn12 | inactive
68 | O=S(=O)(Nc1ccc(N2CCOCC2)cc1)c1cccs1 | inconclusive [inhibitor, single point]
69 | N#Cc1ccc(OCc2nnc(-c3ccc([N+](=O)[O-])cc3)o2)cc1 | inactive
70 | Cc1ccccc1C(=O)c1cccn1CC(=O)NCCN1CCN(c2cccc(C)c2C)CC1 | inactive
71 | COc1ccc(C(=O)/C=C/c2cc(OC)c(O)c(OC)c2)c(F)c1 | inconclusive [inhibitor, single point]
72 | Cc1ccccc1NC(=O)COc1ccc2oc(=O)cc(C)c2c1 | inconclusive [inhibitor, single point]
73 | CCOP(=O)(OCC)c1nc(-c2ccc(Cl)cc2Cl)oc1N1CCOCC1 | inactive
